IC50 is the fitted dose that halves viability relative to control wells, and lower means more sensitive; where the fit passes the top or lowest dose, that dose stands as a limit. AUC is the area under the same curve over the 256-fold range up to the top dose, as a fraction; the more sensitive the line, the further below 1. For some of these results: A top dose marked as inferred was calculated from the reported fits. For some of these results: Where an entry number is given, a second screen of the drug exists; the two often differ.
Experiments:
Assay in all cases: Viability of human cancer cell lines after 72 h of drug (GDSC screen)
[1] = compound: CCCS(=O)(=O)Nc1ccc(F)c(C(=O)c2c[nH]c3ncc(Cl)cc23)c1F [PLX4720]; settings: top dose 10 µM
Method: (§1)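 Human cancer cell lines in 384-well plates, medium with 10% serum, drug for 72 h over a 256-fold dose range (nine 2-fold or five 4-fold steps up to the top dose). Adherent lines were fixed and stained with the nucleic acid dye Syto60, suspension lines read with resazurin; signal relative to control wells, capped at 0 and 100%. One two-parameter sigmoid per drug and line, fitted in a mixed model over all curves with the slope shared within a line.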

[2] = compound: NC(=O)Nc1sc(-c2ccc(F)cc2)cc1C(N)=O [TPCA-1]; settings: top dose 20 µM
Method: as §1

[3] = compound: CC(C)CC(=O)Nc1n[nH]c2c1CN(C(=O)C1CCN(C)CC1)C2(C)C [PHA-793887]; settings: top dose 10.24 µM
Method: as §1

[4] = compound: C/C(=C\c1csc(C)n1)[C@@H]1C[C@@H]2O[C@]2(C)CCC[C@H](C)[C@H](O)[C@@H](C)C(=O)C(C)(C)[C@@H](O)CC(=O)O1 [Epothilone B]; settings: top dose 0.032 µM; top dose inferred
Method: as §1

[5] = compound: C[C@@H](N)c1ccc(C(=O)Nc2ccnc3[nH]ccc23)cc1 [Y-39983]; settings: top dose 20 µM; top dose inferred
Method: as §1

[6] = screen: GDSC drug entry 1371, top dose inferred

Cell Line | AUC [1, 6] | IC50 [1, 6] [µM] | AUC [2] | IC50 [2] [µM] | AUC [3] | IC50 [3] [µM] | AUC [4] | IC50 [4] [µM] | AUC [5] | IC50 [5] [µM] | AUC ([1]; screen: GDSC drug entry 1036) | IC50 ([1]; screen: GDSC drug entry 1036) [µM]
HPAF-II (pancreas, adherent) | 0.964 | > 10 | 0.792 | 12.3 | 0.813 | 7.75 | 0.76 | 0.0146 | 0.981 | > 20 | – | –
HSC-2 (head and neck, adherent) | 0.984 | > 10 | 0.963 | > 20 | 0.969 | > 10.2 | 0.248 | 0.000405 | 0.989 | > 20 | 0.974 | > 10
HSC-3 (head and neck, adherent) | 0.871 | 7.17 | 0.962 | > 20 | 0.942 | > 10.2 | 0.347 | 0.000809 | 0.964 | > 20 | – | –
HSC-4 (head and neck, adherent) | 0.928 | > 10 | 0.962 | > 20 | 0.927 | > 10.2 | 0.763 | 0.0154 | 0.962 | > 20 | – | –
HT55 (large intestine, adherent) | – | – | 0.983 | > 20 | 0.99 | > 10.2 | 0.868 | 0.029 | 0.99 | > 20 | 0.99 | > 10
HT-3 (cervix, adherent) | 0.985 | > 10 | 0.879 | > 20 | 0.803 | 5.16 | 0.805 | 0.0164 | 0.98 | > 20 | 0.986 | > 10
HT-29 (large intestine, adherent) | 0.93 | > 10 | 0.857 | 16.3 | 0.645 | 1.61 | 0.292 | 0.000521 | 0.969 | > 20 | 0.722 | 2.66
HT-115 (large intestine, adherent) | 0.991 | > 10 | 0.984 | > 20 | 0.991 | > 10.2 | 0.874 | 0.0264 | 0.988 | > 20 | 0.991 | > 10
HT-1080 (fibrosarcoma, adherent) | 0.86 | 6.99 | 0.98 | > 20 | 0.987 | > 10.2 | 0.389 | 0.00103 | 0.978 | > 20 | 0.856 | 6.72
HT-1197 (bladder, adherent) | 0.93 | > 10 | 0.98 | > 20 | 0.938 | > 10.2 | 0.762 | 0.0135 | 0.985 | > 20 | 0.975 | > 10
HT-1376 (bladder, adherent) | 0.958 | > 10 | 0.985 | > 20 | 0.985 | > 10.2 | 0.768 | 0.0141 | 0.985 | > 20 | 0.913 | > 10
HTC-C3 (thyroid, adherent) | 0.64 | 1.6 | 0.522 | 1.44 | 0.978 | > 10.2 | 0.563 | 0.00303 | 0.921 | > 20 | – | –
HeLa (cervix, adherent) | 0.986 | > 10 | 0.947 | > 20 | 0.979 | > 10.2 | 0.38 | 0.000949 | 0.977 | > 20 | 0.984 | > 10
Hep 3B2_1-7 (liver, adherent) | 0.941 | > 10 | 0.853 | 15.6 | 0.987 | > 10.2 | 0.534 | 0.00247 | 0.974 | > 20 | 0.92 | > 10
Hs633T (fibrosarcoma, adherent) | 0.973 | > 10 | 0.828 | 9.37 | 0.865 | 6.45 | 0.309 | 0.000656 | 0.867 | 12.8 | 0.911 | 9.77
Hs683 (glioma, adherent) | 0.969 | > 10 | 0.955 | > 20 | 0.933 | > 10.2 | 0.468 | 0.00163 | 0.988 | > 20 | 0.921 | > 10
Hs766T (pancreas, adherent) | 0.98 | > 10 | 0.983 | > 20 | 0.98 | > 10.2 | 0.966 | > 0.032 | 0.979 | > 20 | 0.937 | > 10
Hs939-T (melanoma, adherent) | 0.793 | 5.06 | 0.967 | > 20 | 0.984 | > 10.2 | 0.918 | > 0.032 | 0.966 | > 20 | 0.747 | 3.45
Hs940-T (melanoma, adherent) | 0.862 | > 10 | 0.984 | > 20 | 0.902 | > 10.2 | 0.508 | 0.00211 | 0.984 | > 20 | – | –
Hs-578-T (breast, adherent) | 0.986 | > 10 | 0.987 | > 20 | 0.987 | > 10.2 | 0.903 | > 0.032 | 0.975 | > 20 | 0.978 | > 10
HuCCT1 (biliary tract, adherent) | 0.959 | > 10 | 0.787 | 9.81 | 0.73 | 3.14 | 0.543 | 0.00265 | 0.966 | > 20 | 0.941 | > 10
HuH-7 (liver, adherent) | 0.98 | > 10 | 0.942 | > 20 | 0.986 | > 10.2 | 0.685 | 0.00657 | 0.973 | > 20 | 0.957 | > 10
HuO9 (osteosarcoma, adherent) | 0.96 | > 10 | 0.947 | > 20 | 0.774 | 4.46 | 0.976 | > 0.032 | 0.983 | > 20 | 0.905 | > 10
HuO-3N1 (osteosarcoma, adherent) | 0.973 | > 10 | 0.925 | > 20 | 0.962 | > 10.2 | 0.923 | > 0.032 | 0.87 | > 20 | 0.933 | > 10

Cell Line | AUC [1, 6] | IC50 [1, 6] [µM] | AUC [2] | IC50 [2] [µM] | AUC [3] | IC50 [3] [µM] | AUC [4] | IC50 [4] [µM] | AUC [5] | IC50 [5] [µM] | AUC ([1]; screen: GDSC drug entry 1036) | IC50 ([1]; screen: GDSC drug entry 1036) [µM]
HuP-T3 (pancreas, adherent) | 0.974 | > 10 | 0.828 | 16.3 | 0.85 | > 10.2 | 0.583 | 0.00357 | 0.962 | > 20 | 0.983 | > 10
HuP-T4 (pancreas, adherent) | 0.934 | > 10 | 0.532 | 1.54 | 0.449 | 0.46 | 0.506 | 0.00208 | 0.896 | > 20 | 0.954 | > 10
IGR-1 (melanoma, adherent) | 0.927 | > 10 | 0.782 | 7.31 | 0.99 | > 10.2 | 0.374 | 0.000944 | 0.975 | > 20 | 0.908 | > 10
IHH-4 (thyroid, semi-adherent) | 0.862 | 5.92 | 0.953 | > 20 | 0.46 | 0.508 | 0.231 | 0.000409 | 0.992 | > 20 | 0.862 | 5.94
IPC-298 (melanoma, adherent) | 0.929 | > 10 | 0.822 | 11.5 | 0.938 | > 10.2 | 0.842 | – | 0.977 | > 20 | 0.904 | > 10
J82 (bladder, adherent) | 0.987 | > 10 | 0.979 | > 20 | 0.988 | > 10.2 | 0.44 | 0.00137 | 0.98 | > 20 | – | –
JEG-3 (urogenital system, adherent) | 0.99 | > 10 | 0.991 | > 20 | 0.935 | > 10.2 | 0.626 | 0.00428 | 0.991 | > 20 | 0.983 | > 10
JHH-1 (liver, adherent) | 0.983 | > 10 | 0.782 | 9.11 | 0.759 | 3.87 | 0.656 | 0.00564 | 0.985 | > 20 | 0.985 | > 10
JHH-2 (liver, adherent) | 0.969 | > 10 | 0.858 | 18.5 | 0.788 | 4.87 | 0.875 | > 0.032 | 0.978 | > 20 | 0.957 | > 10
JHH-4 (liver, adherent) | 0.946 | > 10 | 0.697 | 4.45 | 0.98 | > 10.2 | 0.558 | 0.00288 | 0.762 | 7.15 | 0.936 | > 10
JHH-6 (liver, adherent) | 0.982 | > 10 | 0.928 | > 20 | 0.952 | > 10.2 | 0.483 | 0.00179 | 0.927 | > 20 | – | –
JHH-7 (liver, adherent) | 0.977 | > 10 | 0.938 | > 20 | 0.972 | > 10.2 | 0.306 | 0.000594 | 0.982 | > 20 | 0.982 | > 10
JHU-011 (head and neck, adherent) | – | – | 0.786 | 8.47 | 0.625 | 1.4 | 0.239 | 0.000358 | 0.959 | > 20 | 0.893 | > 10
JHU-022 (head and neck, adherent) | 0.974 | > 10 | 0.973 | > 20 | 0.941 | > 10.2 | 0.944 | > 0.032 | 0.962 | > 20 | 0.973 | > 10
JIMT-1 (breast, adherent) | 0.955 | > 10 | 0.933 | > 20 | 0.937 | > 10.2 | 0.365 | 0.00082 | 0.978 | > 20 | 0.908 | > 10
K2 (melanoma, adherent) | 0.561 | 0.962 | 0.962 | > 20 | 0.957 | > 10.2 | 0.839 | 0.0317 | 0.982 | > 20 | 0.776 | 5.25
KMH-2 (thyroid, adherent) | 0.982 | > 10 | 0.955 | > 20 | 0.899 | > 10.2 | 0.41 | 0.00117 | 0.982 | > 20 | 0.989 | > 10
KMRC-1 (kidney, adherent) | – | – | 0.97 | > 20 | 0.987 | > 10.2 | 0.858 | 0.029 | 0.964 | > 20 | 0.987 | > 10
KMRC-20 (kidney, adherent) | 0.988 | > 10 | 0.97 | > 20 | 0.989 | > 10.2 | 0.84 | 0.0225 | 0.973 | > 20 | 0.972 | > 10
KON (head and neck, adherent) | 0.952 | > 10 | 0.986 | > 20 | 0.983 | > 10.2 | 0.203 | 0.00027 | 0.983 | > 20 | 0.96 | > 10
KOSC-2 (head and neck, adherent) | 0.929 | > 10 | 0.91 | > 20 | 0.94 | > 10.2 | 0.578 | 0.0033 | 0.97 | > 20 | – | –
KP-2 (pancreas, adherent) | 0.946 | > 10 | 0.966 | > 20 | 0.759 | 3.85 | 0.372 | 0.000863 | 0.985 | > 20 | 0.904 | > 10
KP-3 (pancreas, adherent) | 0.938 | > 10 | 0.816 | 13.9 | 0.752 | 3.97 | 0.656 | 0.00591 | 0.935 | > 20 | 0.969 | > 10

Reference: the supplement of paper PMC4967469
